{"source": "the RNAGym collection of RNA variant scans (doi:10.7554/elife.90254)", "parents": {"B1": {"name": "LINE1-mini (parent)", "chain": "GGCAGAGCUCAACACAGCGUGGCAAAGUGGCUGUGGCUAGACUGCC"}}, "note": "Read counts are not given, so values of variants with three or more changes are uncertain."}
{"variants_of": "B1", "test": "self-cleavage, relative activity (ratio to wild type); higher = more cleavage; in vitro, sequencing; the parent is a self-cleaving ribozyme"}
{"variant": "GGCAGAGCUCAAUACAGCGUGGCCAAGUGGCUUUGGCUAGACUGCC", "note": "[C13U A24C G33U]", "self-cleavage": 0.07}
{"variant": "GGCAGAGCUCAAUACAGCGUGGCAAAGUGGCUGUGCAAAGACUGCC", "note": "[C13U G36C C37A U38A]", "self-cleavage": 0.01}
{"variant": "GGCAGAGCUCAAGACAGCGAGUCAAAGUGGCUGUGGCUAGACUGCA", "note": "[C13G U20A G22U C46A]", "self-cleavage": 0.04}
{"variant": "GGCAGAGCUCAAUACAGCGUGGGAAAGUGGCUGUCGCUAGACUGCC", "note": "[C13U C23G G35C]", "self-cleavage": 0.08}
{"variant": "GGCAGAGCUCAAUACAGCGUGGCAAAGUAGCUGUGGCUACACUGCC", "note": "[C13U G29A G40C]", "self-cleavage": 0.01}
{"variant": "GGCAGAGCUCAAUACAGCGUGGCAAAGUGGCUGUGUCUCGACUGCC", "note": "[C13U G36U A39C]", "self-cleavage": 0.08}
{"variant": "GGCAGAGCUCAAUACUGCUAGGCAUUGUGGCUGUGGCUAGACUGCC", "note": "[C13U A16U G19U U20A A25U A26U]", "self-cleavage": 0.06}
{"variant": "GGCAGAGCUCAAUACAACGUGGCAAAGUGUCUGAGGCUAGACUGCC", "note": "[C13U G17A G30U U34A]", "self-cleavage": 0.02}
{"variant": "GGCAGAGCUCAAUCCAGCGUUGCAAAGUGGCUGUGGCUAGACUGCC", "note": "[C13U A14C G21U]", "self-cleavage": 0.13}
{"variant": "GGCAGAGCUCAAGACAGCGCGGCAAAGAGGGUGUGGCUGGACUGCC", "note": "[C13G U20C U28A C31G A39G]", "self-cleavage": 0.07}
{"variant": "GGCAGAGCUCAAUACAGCGUGGCAGAGUGGCUGUGGCUAGAUUGCC", "note": "[C13U A25G C42U]", "self-cleavage": 0.09}
{"variant": "GGCAGAGCUCAAUACAGAGUGGCAAAGUAGCUGUGGCUAGACUGCC", "note": "[C13U C18A G29A]", "self-cleavage": 0.02}
{"variant": "GGCAGAGCUCAAUACAGCGUGGCAAAGUGGCUGUGGCCAGAGUGCC", "note": "[C13U U38C C42G]", "self-cleavage": 0.01}
{"variant": "GGCAGAGCUCAAUACAGCGUGGCAAAGUGACUCUGGCUAGACUGCC", "note": "[C13U G30A G33C]", "self-cleavage": 0.03}
{"variant": "GGCAGAGCUCAAUACAGCGGGACAAAGUGGGUGUGGCUAGACUGCC", "note": "[C13U U20G G22A C31G]", "self-cleavage": 0.04}
{"variant": "GGCAGAGCUCAAUAAAGCAUGGCAAAGUGGCUGUGGCAAGACUGCC", "note": "[C13U C15A G19A U38A]", "self-cleavage": 0.08}
{"variant": "GGCAGAGCUCAAUACAGGGUGGUAACGUGGCUGUUGCUAGACUGCC", "note": "[C13U C18G C23U A26C G35U]", "self-cleavage": 0.06}
{"variant": "GGCAGAGCUCAAUACAGUGGGGAGAAGUCGCUGUGGCUAGACUGCC", "note": "[C13U C18U U20G C23A A24G G29C]", "self-cleavage": 0.02}
{"variant": "GGCAGAGCUCAAUACAGCGUGGCAAAGUGGCUGUGGCUUGACUUUC", "note": "[C13U A39U G44U C45U]", "self-cleavage": 0.07}
{"variant": "GGCAGAGCUCAAUACAGCGUGGCAAAGUGGCUGUAGCUAGAGUGCC", "note": "[C13U G35A C42G]", "self-cleavage": 0.2}
{"variant": "GGCAGAGCUCAAUACAUCGUGGCAAACUGGCUGUGGCUAGACUGCC", "note": "[C13U G17U G27C]", "self-cleavage": 0.07}
{"variant": "GGCAGAGCUCAAGACAGCGUGGCAAAGUGGCUGUGCUUAGACUGAC", "note": "[C13G G36C C37U C45A]", "self-cleavage": 0.15}
{"variant": "GGCAGAGCUCAAUACAGCGUGGCAAAGUGGCUGUGGCUAGACUGAA", "note": "[C13U C45A C46A]", "self-cleavage": 0.08}
{"variant": "GGCAGAGCUCAAUACAGCGUGGCAAAGUGACUGUGGCUAGACUACC", "note": "[C13U G30A G44A]", "self-cleavage": 0.04}
{"variant": "GGCAGAGCUCAAUACGGCGUGGCAAAUUGGCUGUGGCUAGUCUGCC", "note": "[C13U A16G G27U A41U]", "self-cleavage": 0.07}
{"variant": "GGCAGAGCUCAAGACAGCGUGGCAAAGUGGCUGUGUCCAGCCUGCC", "note": "[C13G G36U U38C A41C]", "self-cleavage": 0.1}
{"variant": "GGCAGAGCUCAAUACAGCGUGGCAAAGUGGGUGUGGCUGGACUGCC", "note": "[C13U C31G A39G]", "self-cleavage": 0.04}
{"variant": "GGCAGAGCUCAAUCCAACGUGGCAUAGUUGCUGUGGCUAGACUGCC", "note": "[C13U A14C G17A A25U G29U]", "self-cleavage": 0.02}
{"variant": "GGCAGAGCUCAAUCCAGCGUGUCAAAGUGGCUGUGGCUAGACUGCC", "note": "[C13U A14C G22U]", "self-cleavage": 0.17}
{"variant": "GGCAGAGCUCAAUACAGCAUGGCAAAGUGGUUGUGGCUAGACUGCC", "note": "[C13U G19A C31U]", "self-cleavage": 0.02}
{"variant": "GGCAGAGCUCAAUACAGCGUGGCAAAGUGGCUGUGGCUUGACUGCA", "note": "[C13U A39U C46A]", "self-cleavage": 0.02}
{"variant": "GGCAGAGCUCAAUACAGCGUGGCAAAGUGGCUGUGGUUAAACUGCC", "note": "[C13U C37U G40A]", "self-cleavage": 0.03}
{"variant": "GGCAGAGCUCAAUACAGCGUGGCAAAGUGGCGGUUGCUAGACUGCC", "note": "[C13U U32G G35U]", "self-cleavage": 0.01}
{"variant": "GGCAGAGCUCAAUACAGCGUUGCAAAGUGGCUUUGGCUAGACUGCC", "note": "[C13U G21U G33U]", "self-cleavage": 0.01}
{"variant": "GGCAGAGCUCAAUACAGCGUGGCAAAGUUGCUGUGGCUAGACUGUC", "note": "[C13U G29U C45U]", "self-cleavage": 0.17}
{"variant": "GGCAGAGCUCAAUACAGCGUGUAAAAGUUGCGGUGGCUAGACUGCC", "note": "[C13U G22U C23A G29U U32G]", "self-cleavage": 0.41}
{"variant": "GGCAGAGCUCAAUACAGUGUGGCAAAGUGGCUGGGGCUAGACUGCA", "note": "[C13U C18U U34G C46A]", "self-cleavage": 0.01}
{"variant": "GGCAGAGCUCAAGACAGCGUGGCAAAGUGGCUGUGACUAGGCUGCC", "note": "[C13G G36A A41G]", "self-cleavage": 0.02}
{"variant": "GGCAGAGCUCAAUACAGCGUGGCAAAGUGGGUGUGGCUAGACUGCG", "note": "[C13U C31G C46G]", "self-cleavage": 0.07}
{"variant": "GGCAGAGCUCAAUACAACGUGGCAAAGGGGCUGUGGCUAGUCUGCC", "note": "[C13U G17A U28G A41U]", "self-cleavage": 0.16}
{"variant": "GGCAGAGCUCAAUACAAUGAGGCAAAGUGGCUGUGGCUAAACUGCC", "note": "[C13U G17A C18U U20A G40A]", "self-cleavage": 0.01}
{"variant": "GGCAGAGCUCAAUUCAGCUUGGCAAAGUGGCUGUGGCUAGACAGCC", "note": "[C13U A14U G19U U43A]", "self-cleavage": 0.03}
{"variant": "GGCAGAGCUCAAUACAGCUUGGAAAAGUCGCUGUGGCUAGACUGCC", "note": "[C13U G19U C23A G29C]", "self-cleavage": 0.09}
{"variant": "GGCAGAGCUCAAUACAGUGUGGCAAUGUGGCUGUGGCUAGACUGCU", "note": "[C13U C18U A26U C46U]", "self-cleavage": 0.03}
{"variant": "GGCAGAGCUCAAUACAGUGUGGCAAAAUGGCUGUGGCUAGACUGCC", "note": "[C13U C18U G27A]", "self-cleavage": 0.17}
{"variant": "GGCAGAGCUCAAUACAACGUGGCAAAGAGGCUGUGGCUAGGCUGGC", "note": "[C13U G17A U28A A41G C45G]", "self-cleavage": 0.03}
{"variant": "GGCAGAGCUCAAUACAGCGUGGCAAAGUGGCUGUGGCUAAAAUGCC", "note": "[C13U G40A C42A]", "self-cleavage": 0.06}
{"variant": "GGCAGAGCUCAACCCCGCGUGGCAAAGUUGCUGUGGCUAGACUGCC", "note": "[A14C A16C G29U]", "self-cleavage": 0.13}
{"variant": "GGCAGAGCUCAAUACAGCGUGGCAAAGGGGCUGGGGGUAGACUGCC", "note": "[C13U U28G U34G C37G]", "self-cleavage": 0.07}
{"variant": "GGCAGAGCUCAAUACAGCGAGGCAAAGUGCCUGUGGCUAGACUCCC", "note": "[C13U U20A G30C G44C]", "self-cleavage": 0.06}
{"variant": "GGCAGAGCUCAAUACAGCGUGGCAAAAUGGCUGUGGCUUGACUGCC", "note": "[C13U G27A A39U]", "self-cleavage": 0.09}
{"variant": "GGCAGAGCUCAAGACAGCGUGGCAAAGUGGCUGUAGCUAGACUGUC", "note": "[C13G G35A C45U]", "self-cleavage": 0.08}
{"variant": "GGCAGAGCUCAAUACAGCGUGGCAAAGUGGCUAUGGCUAGACUGUC", "note": "[C13U G33A C45U]", "self-cleavage": 0.09}
{"variant": "GGCAGAGCUCAAUACAGCGUGGCAACGUCGCUGUGGCUAGACUGCC", "note": "[C13U A26C G29C]", "self-cleavage": 0.08}
{"variant": "GGCAGAGCUCAAUACAUCGUGUGAAAGUGGCUGUGGUUAGACUGCC", "note": "[C13U G17U G22U C23G C37U]", "self-cleavage": 0.12}
{"variant": "GGCAGAGCUCAAGACAGCGGGGCAAAGUGGCUGAGGCUAGACUGCC", "note": "[C13G U20G U34A]", "self-cleavage": 0.07}
